Reference: PubChem BioAssay
Inconclusive results, whose numbers are uncertain, are shown with a selection of clear calls. The source made the active and inactive calls.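 How the source made its calls, unless noted: active means thallium flux slope above the same plate's solvent-control mean plus 3 SD in both duplicate wells; inconclusive means duplicate wells that disagreed; inactive means the rest.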

test: compound effects on native HEK Tl+ uptake – HEK cells, counterscreen 1, counter-screen for KCC2 modulator project, confirmation (AID 1716;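 active means thallium flux rate significantly above the same plate's solvent-only control wells, beyond their mean plus 3 SD; inconclusive means the two replicate wells gave conflicting results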); conditions: HEK293 parental cells, thallium flux FluoZin2, ouabain; at 10 µM; baseline-ratio fluorescence slope, 10–20 s after thallium

**Q.** With `CCn1c(O)c(N=NC(=O)c2cccs2)c2ccccc21` as the compound, how does the thallium flux rate (normalised fluorescence) read?
**A.** The thallium flux rate (normalised fluorescence) was active: 0.0135.

**Q.** Which thallium flux rate (normalised fluorescence) does the source give for `Cc1cccc(Nc2nnc(SCC(=O)Nc3cccc(S(=O)(=O)N4CCCCC4)c3)s2)c1` here?
**A.** The thallium flux rate (normalised fluorescence) was inconclusive: 0.00582.

**Q.** For `O=C(/C=C/c1ccccc1)NC(=S)N1CCSCC1`, which thallium flux rate (normalised fluorescence) is on record?
**A.** The thallium flux rate (normalised fluorescence) was active: 0.0181.

**Q.** Which thallium flux rate (normalised fluorescence) does the source give for `CC(C)Cn1c(=S)[nH]c2cc(Cl)ccc21` here?
**A.** Its thallium flux rate (normalised fluorescence) is active: 0.0834.

test: native HEK Tl+ uptake effects, second counter-screen – HEK cells, counterscreen 2, counter-screen for KCC2 modulator project, confirmation (AID 1718); conditions: HEK293 parental, thallium flux FluoZin-2 fluorescence slope; at 10 µM;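 further: run without ouabain in cells lacking the KCC2 cotransporter; slope of fluorescence scaled to its starting value between 10 and 20 s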
Summary of the method: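 System: untransfected HEK cells, thallium influx assay; Schedule: 37 °C overnight growth, 48 min FluoZin2-AM loading; Medium: HBSS with 20 mM HEPES for dye loading; Measured by: FluoZin2-AM fluorescence (0.5 µM), ex 480 nm, em 540 nm, kinetic 1 Hz; Read-out: thallium influx rate; Compound: single 10 µM final compound dose, 0.1% DMSO.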

**Q.** With `O=C(NNc1nc(-c2ccccc2)cs1)c1ccccc1` as the compound, how does the thallium flux slope read?
**A.** The thallium flux slope was inactive: 0.0111.

**Q.** For `COc1ccc(N2C(=S)N=C(Nc3ccccc3)C23CCCCC3)cc1`, which thallium flux slope is on record?
**A.** The thallium flux slope was active: 0.0124.

**Q.** With `Cc1cccc(Nc2nnc(SCC(=O)c3ccc(Br)s3)s2)c1C` as the compound, how does the thallium flux slope read?
**A.** The thallium flux slope was inactive: 0.0109.

**Q.** For `O=C(NC(=S)Nc1ccc(CN2CCOCC2)cc1)c1ccco1`, which thallium flux slope is on record?
**A.** The thallium flux slope was active: 0.0124.

**Q.** With `Cc1nn(-c2ccc(F)cc2)c(Cl)c1/C=C(\CCC(=O)O)c1nc2ccccc2s1` as the compound, how does the thallium flux slope read?
**A.** The thallium flux slope was inconclusive: 0.00912.

**Q.** With `O=S(=O)(NCc1csc(-c2cccs2)n1)c1ccc(Cl)cc1` as the compound, how does the thallium flux slope read?
**A.** The thallium flux slope was inconclusive: 0.0079.

**Q.** For `CCC1=NN2C(=N)/C(=C\c3cccn3-c3ccc(Cl)cc3)C(=O)N=C2S1`, which thallium flux slope is on record?
**A.** The thallium flux slope was active: 0.0115.
